The source of these data is patent publication US12540138B2, “Substituted oxaspiro[4.5]decanes as MOR receptor agonists” (priority 2020, dated 2026).

In assay [1] the target is T1, MOR receptor (PathHunter CHO-K1 OPRM1 β-Arrestin Cell Line) (Homo sapiens, UniProt P35372). Briefly: cell-based. Conditions: read-out: β-arrestin Emax (%), Morphine was 100%.
The target in assay [2] is T1, MOR receptor (PathHunter CHO-K1 OPRM1 β-Arrestin Cell Line). The assay can be described thus: HTRF-cAMP cell experiment. The conditions noted are these: for Emax: read-out: cAMP Emax (%) Morphine was 100%. For orientation: TR-FRET usually uses a lanthanide donor and a delayed reading to cut background.
Where [3] appears, read: maximum effect relative to morphine (100%), PathHunter CHO-K1 OPRM1 β-arrestin cells.

T1 sequence (P35372 whole entry): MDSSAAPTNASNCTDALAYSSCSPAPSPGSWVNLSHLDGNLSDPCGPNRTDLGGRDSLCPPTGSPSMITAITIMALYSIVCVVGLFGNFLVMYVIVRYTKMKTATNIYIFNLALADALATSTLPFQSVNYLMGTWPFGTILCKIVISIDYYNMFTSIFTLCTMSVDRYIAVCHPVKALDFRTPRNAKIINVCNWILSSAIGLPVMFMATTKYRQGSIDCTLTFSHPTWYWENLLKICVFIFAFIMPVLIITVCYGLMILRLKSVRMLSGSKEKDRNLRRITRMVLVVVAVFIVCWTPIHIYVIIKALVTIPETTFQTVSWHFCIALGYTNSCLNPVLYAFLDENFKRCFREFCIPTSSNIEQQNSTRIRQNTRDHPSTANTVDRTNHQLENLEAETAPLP

`CC(C)[C@@H]1C[C@H](NCC[C@@]2(c3ccccn3)CCOC3(CCCC3)C2)c2ccnn21` [Compound H-3a, (4S,6S)-6-isopropyl-N-(2-((R)-9-(pyridin-2-yl)-6-oxaspiro[4.5]decan-9-yl)ethyl)-5,6-dihydro-4H-pyrrolo[1,2-b]pyrazol-4-amine]: in assay [1], the Emax was 1.3%.

For `CC(C)(C)[C@@H]1C[C@H](NCC[C@@]2(c3ccccn3)CCOC3(CCCC3)C2)c2ccnn21` [Compound H-1a, (4S,6S)-6-tert-butyl-N-(2-((R)-9-(pyridin-2-yl)-6-oxaspiro[4.5]decan-9-yl)ethyl)-5,6-dihydro-4H-pyrrolo[1,2-b]pyrazol-4-amine], the Emax in assay [1] (setting [3]) was 17.6%. In addition, in assay [2], a half-maximal effect (EC50) was put at 8.1 nM and the Emax was 97.4%.

In the case of `CC(C)[C@H]1C[C@H](NCC[C@@]2(c3ccccn3)CCOC3(CCCC3)C2)c2ccnn21` [Compound H-3b, (4S,6R)-6-isopropyl-N-(2-((R)-9-(pyridin-2-yl)-6-oxaspiro[4.5]decan-9-yl)ethyl)-5,6-dihydro-4H-pyrrolo[1,2-b]pyrazol-4-amine], in assay [1], the Emax turned out to be 4.7%. Moreover, in assay [2], a half-maximal effect (EC50) was put at 26 nM and the Emax worked out at 68.5%.

For the molecule `CC1([C@H]2C[C@H](NCC[C@@]3(c4ccccn4)CCOC4(CCCC4)C3)c3ccnn32)CC1` (single isomer, unassigned) [Compound H-2b], the Emax in assay [1] (setting [3]) worked out at 5.7%. Further, in assay [2], the EC50 came out at 26.2 nM and the Emax came to 68.2%.

Regarding `CC(C)(C)[C@H]1C[C@H](NCC[C@@]2(c3ccccn3)CCOC3(CCCC3)C2)c2ccnn21` [Compound H-1b, (4S,6R)-6-tert-butyl-N-(2-((R)-9-(pyridin-2-yl)-6-oxaspiro[4.5]decan-9-yl)ethyl)-5,6-dihydro-4H-pyrrolo[1,2-b]pyrazol-4-amine], the maximal response (Emax) in assay [1] (setting [3]) is 12%. Also, in assay [2], the EC50 came out at 42 nM and the Emax worked out at 94.2%.

Regarding `CC1([C@@H]2C[C@H](NCC[C@@]3(c4ccccn4)CCOC4(CCCC4)C3)c3ccnn32)CC1` (single isomer, unassigned) [Compound H-2a], the Emax came out at 7% in assay [1] (setting [3]) and 56.3% in assay [2]. In assay [2], this molecule showed an EC50 of 1 nM.

For orientation: Emax means the size of the effect at its maximum, as opposed to the concentration needed. A word on the EC50: it is the concentration giving half of the maximal effect.
